Laboratory results as given in PubChem BioAssay AID1508623 (National Center for Advancing Translational Sciences (NCATS), 2021).
The whole screen tested about 48,000 compounds, of which about 450 (0.94%) were called active. Not shown: some 19% with an inconclusive outcome. The call rests on the fitted dose curve; in most records, active means well fitted inhibition curve with a large enough effect; inconclusive means small, poorly fitted or top-dose-only effect; inactive means no such curve, though single readings can be large or run the other way. Some of the results follow.

Test: Primary qHTS for Identification of Small Molecule Inhibitors of Huntingtin Promoter Activity; further: nearly all actives have a fitted effect of over 50% in size
Conditions: HEK293 HTT promoter firefly luciferase reporter (activity 0% = vehicle and -100% = no light), 24 h; series mostly up to 57.5 µM; activity change, negative = inhibition: at the top concentration
Method in brief: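 Quantitative HTS used concentration series of up to 57.5 uM final on HEK293 luciferase reporter cells, 24 h at 37 degrees C. Readout was Dual-Glo firefly luminescence.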
Potency means the concentration at half of the fitted maximal effect.

Row | SMILES | activity change, negative = inhibition | Potency
1 | CS(=O)(=O)c1ncc(N(Cc2ccccc2)Cc2ccco2)c(C(=O)Nc2cccc(C(F)(F)F)c2)n1 | inactive: -34.3% | –
2 | CCOC(=O)c1c(NC(=O)c2cc(-c3ccccc3)on2)sc2c1CCCC2 | inactive: -8.83% | –
3 | CC(C)Cn1c(=O)c2sccc2n2c(CCCC(=O)Nc3ccc(Cl)cc3)nnc12 | inactive: -18.5% | –
4 | Cc1cc(C)c(NC(=O)CSc2nc(=O)n(Cc3ccco3)c3c2CCC3)c(C)c1 | inactive: -1.81% | –
5 | COc1cccc(-c2nc(SCc3cc(=O)c4cc(Cl)ccc4[nH]3)n[nH]2)c1 | inactive: -29.9% | –
6 | CCc1ccc(CN(Cc2ccco2)C(=O)c2cc(-c3ccc(Cl)cc3)on2)cc1 | inactive: -38.4% | –
7 | CCOc1ccc(-c2nonc2NC(=O)c2ccccc2C)cc1 | inactive: -12.9% | –
8 | Cc1ccc2c(c1)c(=O)c(S(=O)(=O)c1ccc(F)cc1)cn2CC(=O)Nc1ccc2c(c1)OCO2 | inactive: -24.5% | –
9 | Cc1ccc(Cl)cc1NC(=O)NC1COc2ccccc2C1 (stereo not given) | inactive: -5.98% | –
10 | CCN(CC)C(=O)c1sc2c(c1C)c(=O)n(-c1ccc(C)c(C)c1)c(=O)n2CC(=O)Nc1ccc(F)cc1 | inactive: -28.6% | –
11 | O=C(Cc1ccc(Cl)cc1)Nc1ccc2oc(-c3ccccc3)nc2c1 | inactive: 18.4% | –
12 | Cc1cccc(C2N3CC4(C(C)C)CN2CC(C(C)C)(C3)C4=O)c1 (stereo not given) | inactive: -18.5% | –
13 | Cc1ccc(-n2ncc(C(=O)NCc3cccs3)c2C2CCN(C(=O)OC(C)(C)C)CC2)cc1C | inactive: -30% | –
14 | CCC(Cn1nnc2ccccc2c1=O)NC(=O)Nc1cc(Cl)ccc1OC (stereo not given) | inactive: -12.8% | –
15 | Cc1cccc(Cn2c(CNS(=O)(=O)c3ccc(Cl)s3)nc3cccnc32)c1 | inactive: -19.6% | –
16 | CCOc1ccc(-c2cc3c(=O)n(CC(=O)Nc4c(C)cccc4C)ccn3n2)cc1 | inactive: -3.09% | –
17 | CC(C)CN(CCNC(=O)c1cc(=O)[nH]c2ccc(S(=O)(=O)N3CCCCCC3)cc12)CC(C)C | inactive: -17.8% | –
18 | Cn1c(=O)oc2cc(S(=O)(=O)NCCC(=O)Nc3ccc(F)c(Cl)c3)ccc21 | inactive: -8.57% | –
19 | Cc1ccc(Cl)cc1NC(=O)/C(C#N)=C/c1c(C)n(Cc2ccccc2)c2ccccc12 | inactive: -9.21% | –
20 | CC1CCCCN1C(=O)CSc1nnc(-c2cccc(Cl)c2)o1 (stereo not given) | inactive: 49.8% | –

Row | SMILES | activity change, negative = inhibition | Potency
21 | CC(=O)N1CCCc2cc(S(=O)(=O)N(C)CC(=O)Nc3ccc(F)c(Cl)c3)ccc21 | inactive: -26.4% | –
22 | Fc1ccc(-c2csc(-c3nc(-c4ccc(Br)s4)cs3)n2)cc1 | inactive: 8.32% | –
23 | CCOc1ccc(NC(=O)CCCN2C(=O)C(c3ccccc3)Oc3cccnc32)cc1 (stereo not given) | inactive: -15.4% | –
24 | Cc1ccc(NC(=O)c2ccc3nc(Cc4ccccc4)oc3c2)cc1F | inactive: -17.1% | –
25 | CCN(CC)c1ccc2cc(-c3nnc(-c4cccc(Cl)c4)o3)c(=O)oc2c1 | inactive: 36.7% | –
26 | CCCCN(C)CCNC(=O)Cn1ncc2c3ccccc3n(CCC)c2c1=O | inactive: -6.36% | –
27 | Cc1ccc(NC(=O)c2ncn(-c3ccccc3)n2)c(Cl)c1 | inactive: 76.5% | –
28 | COc1ccc(C)cc1N(C)C(=O)c1sc2nc3n(c(=O)c2c1C)CCCCC3 | inactive: 4.71% | –
29 | Cc1csc2nc(-c3cccc(NC(=O)c4cccc(F)c4)c3)cn12 | inactive: -14.6% | –
30 | CCCCCn1c(=O)[nH]c2cc(C(=O)NCc3ccc(C)cc3)ccc2c1=O | inactive: -11.9% | –
31 | CCOc1ccc(CCNC(=O)C2=C(C)C(=O)OC23CCC(C)CC3)cc1OCC (stereo not given) | inactive: -7.83% | –
32 | COc1cccc(NC(=O)CSc2nc(-c3ccccc3)nc3c2Cc2cc(Cl)ccc2O3)c1 | inactive: -16% | –
33 | Cc1ccc(C(=O)c2oc3ccccc3c2NC(=O)c2nc(S(C)(=O)=O)ncc2Cl)cc1F | inactive: -7.02% | –
34 | CCOc1cc(C#N)c(NC(=O)c2ccc(OC)c(S(=O)(=O)N3CCCC3)c2)cc1OCC | inactive: -12.2% | –
35 | O=S(=O)(c1ccccc1)c1nc(-c2ccc(F)cc2)oc1N1CCOCC1 | inactive: -18.8% | –
36 | CCCOc1ccc(OC(=O)c2sc3ncn(Cc4cccc(F)c4)c(=O)c3c2C)cc1 | inactive: -2.58% | –
37 | O=C(c1nc(-c2ccc(Cl)cc2)n2c1CCCCC2)N1CCN(c2ccc(F)cc2)CC1 | inactive: -41.4% | –
38 | O=C1NC(=O)C(=Cc2ccc(-c3ccc(F)cc3O)o2)S1 | inactive: 9.74% | –
39 | COc1ccccc1NC(=O)N(Cc1ccco1)C1CCN(C(C)=O)CC1 | inactive: -20.3% | –
40 | COc1ccc(NC(=O)c2ccc(COc3ccccc3OC)o2)cc1OC | inactive: -17.2% | –

Row | SMILES | activity change, negative = inhibition | Potency
41 | CCn1cc(C(=O)NCc2ccccc2)c(=O)c2cc(S(=O)(=O)N3CCCCCC3)ccc21 | inactive: -5.95% | –
42 | Cc1ccc(OCc2nc3ccccc3n2Cc2ccccc2Cl)cc1 | inactive: -12.6% | –
43 | CCCNC(=O)CCc1c(C)nc2nc(-c3cc(OC)cc(OC)c3)nn2c1C | inactive: 5.59% | –
44 | COc1cccc(CNC(=O)CCC(=O)N2Cc3cccc(OC)c3Oc3ncccc32)c1OC | inactive: -19.8% | –
45 | O=C(Cc1ccccc1)Nc1c(C(=O)Nc2ccccc2F)oc2ccccc12 | inactive: -2.7% | –
46 | CCc1ccc(-c2[nH]c3c(c2-c2sc(C)c(C(=O)OC)c2O)c(=O)n(C)c(=O)n3C)cc1 | inactive: 7.03% | –
47 | COc1ccc(N(C)C(=O)CCS(=O)(=O)c2cccc3nsnc23)cc1 | inactive: -12.3% | –
48 | COc1cccc2sc(N(Cc3cccnc3)C(=O)C3COc4ccccc4O3)nc12 (stereo not given) | inactive: -13.4% | –
49 | Cc1c(NC(=O)c2ccccc2F)cccc1-c1nc2cccnc2s1 | inactive: -9.73% | –
50 | O=C(Cn1ncc2c(=O)oc3ccccc3c21)NCc1ccc(Cl)cc1 | inactive: -13.8% | –
51 | N=C(N)c1ccc2cc(OC(=O)c3ccc(N=C(N)N)cc3)ccc2c1 | inactive | –
52 | COc1ccc2c(c1)CCc1c(C(=O)Nc3c(C)nn(Cc4ccc(C)cc4)c3C)noc1-2 | – | active: 22.4 µM
53 | CCCN(CCC)C(=O)C1CCN(c2ncnc3c2nc2n3CCCCC2)CC1 | inactive: 14.8% | –
54 | CCOc1ccc(CCNC(=O)CN(c2ccc(C)cc2)S(=O)(=O)N(C)C)cc1OCC | inactive: -16% | –
55 | O=c1c(S(=O)(=O)c2ccccc2)cn(Cc2ccc(F)cc2)c2cc(N3CCCCC3)c(F)cc12 | inactive: -13.7% | –
56 | CC1Cn2cc(C(=O)Nc3cccc(C(F)(F)F)c3)c(=O)c3c(Cl)ccc(c32)O1 (stereo not given) | inactive: -6.13% | –
57 | COC(=O)c1nnn(CC(=O)Nc2ccc(Br)c(C)c2)c1N | inactive: -2.03% | –
58 | C[C@H]1C[C@@H]2[C@H]([C@@H](O)C[C@@]3(C)[C@H]2CC[C@]3(O)C(=O)CO)[C@@]2(C)C=CC(=O)C=C12 | inactive: 7.59% | –
59 | Cc1ccc(-n2c(=O)c3c(c4cc(C)ccc4n3C)n(CC(=O)Nc3cc(C)cc(C)c3)c2=O)cc1 | inactive: 9.87% | –
60 | CCOC(=O)c1c(-c2ccc(OC)cc2)oc2ccc(OCc3ccc(C(=O)OC)cc3)cc12 | inactive: -17.8% | –
